# The supplement of paper PMC12645437, “Orthogonal IMiD-Degron Pairs Induce Selective Protein Degradation in Cells” (ACS Chemical Biology, 2025)
# The list shows a part of the results.
# Target: no compound (DMSO)
# Experiment: log2 fold change of degron read counts, EGFP-low vs EGFP+ sorted cells; higher = lower degron-EGFP level without compound (poor expression or instability)
# Details: compound: DMSO control; 18 h
# 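Note: jurkat cells carrying a lentiviral library of mutant zinc finger degrons fused to EGFP plus mCherry, mCherry+ cells FACS sorted, degron abundance counted by next-generation sequencing.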
row,Sequence,log2 fold change of degron read counts
1,FNCDQCGALFTQKGNLLRHIKL,-0.129
2,FECNVCGAEFTQKGNLLRHIKL,-1.94
3,FHCNQCGRLFTQKGNLLRHIKL,0.658
4,LQCEICGFMCTQKGNLLRHIKL,-0.0161
5,FVCEQCGAGFTQKGNLLRHIKL,-0.91
6,FFCEICGRPFTQKGNLLRHIKL,-0.252
7,FVCPICGHEFTQKGNLLRHIKL,-0.477
8,FDCEICGRIFTQKGNLLRHIKL,-0.463
9,LWCNQCGFQCTQKGNLLRHIKL,1.1
10,FTCDQCGAKFTQKGNLLRHIKL,-1.15
11,FSCEVCGAPFTQKGNLLRHIKL,-1.48
12,FMCNQCGANFTQKGNLLRHIKL,-0.475
13,FWCDQCGAWFTQKGNLLRHIKL,1.43
14,FWCPVCGADFTQKGNLLRHIKL,0.675
15,FNCPVCGAVFTQKGNLLRHIKL,-0.155
16,FICPVCGAYFTQKGNLLRHIKL,0.615
17,FFCNQCGAMFTQKGNLLRHIKL,0.363
18,FICEICGRNFTQKGNLLRHIKL,-0.787
19,FCCPQCGACFTQKGNLLRHIKL,-0.519
20,FECSVCGHMFTQKGNLLRHIKL,-0.83
21,FYCEQCGAKFTQKGNLLRHIKL,-1.72
22,FVCEICGRMFTQKGNLLRHIKL,-1.45
23,FECDQCGASFTQKGNLLRHIKL,-1.85
24,FECDVCGAHFTQKGNLLRHIKL,-3.17
25,FYCNQCGRFFTQKGNLLRHIKL,0.773

row,Sequence,log2 fold change of degron read counts
1,FFCNQCGRTFTQKGNLLRHIKL,-0.0181
2,FECSVCGHRFTQKGNLLRHIKL,-2.48
3,FTCPVCGAEFTQKGNLLRHIKL,-1.44
4,FGCNQCGREFTQKGNLLRHIKL,-0.442
5,FFCPVCGAWFTQKGNLLRHIKL,1.3
6,FDCPICGHVFTQKGNLLRHIKL,-0.651
7,LECNQCGFICTQKGNLLRHIKL,-0.0985
8,LQCPICGFDCTQKGNLLRHIKL,0.343
9,FDCNQCGHCFTQKGNLLRHIKL,-0.257
10,LACPICGFNCTQKGNLLRHIKL,0.819
11,FVCPICGRLFTQKGNLLRHIKL,0.38
12,FHCDICGASFTQKGNLLRHIKL,-3.09
13,FWCPQCGAWFTQKGNLLRHIKL,1.68
14,FCCDICGAIFTQKGNLLRHIKL,-0.633
15,FVCDICGAPFTQKGNLLRHIKL,-0.795
16,FECEICGHFFTQKGNLLRHIKL,-1.63
17,FWCPICGREFTQKGNLLRHIKL,0.769
18,FVCPVCGAIFTQKGNLLRHIKL,0.717
19,LMCNQCGFHCTQKGNLLRHIKL,0.856
20,FVCNQCGHPFTQKGNLLRHIKL,-0.374
21,FACPICGRRFTQKGNLLRHIKL,-0.00509
22,LMCEICGFQCTQKGNLLRHIKL,-0.34
23,LRCPICGFNCTQKGNLLRHIKL,1.01
24,FKCDICGAEFTQKGNLLRHIKL,-2.06
25,FVCNQCGRRFTQKGNLLRHIKL,-0.368
